Out of some 310,000 compounds screened, about 2,200 (0.71%) showed an effect of 50% or more. Effects have a minus sign here. The list shows a part of the results.
What follows are molecules tested against human ether-à-go-go-related gene (hERG) potassium channel (human, UniProt Q12809) (assay: primary screen, population patch clamp on CHO cells stably expressing hERG).
Chain of human ether-à-go-go-related gene (hERG) potassium channel (Q12809 whole entry, looked up): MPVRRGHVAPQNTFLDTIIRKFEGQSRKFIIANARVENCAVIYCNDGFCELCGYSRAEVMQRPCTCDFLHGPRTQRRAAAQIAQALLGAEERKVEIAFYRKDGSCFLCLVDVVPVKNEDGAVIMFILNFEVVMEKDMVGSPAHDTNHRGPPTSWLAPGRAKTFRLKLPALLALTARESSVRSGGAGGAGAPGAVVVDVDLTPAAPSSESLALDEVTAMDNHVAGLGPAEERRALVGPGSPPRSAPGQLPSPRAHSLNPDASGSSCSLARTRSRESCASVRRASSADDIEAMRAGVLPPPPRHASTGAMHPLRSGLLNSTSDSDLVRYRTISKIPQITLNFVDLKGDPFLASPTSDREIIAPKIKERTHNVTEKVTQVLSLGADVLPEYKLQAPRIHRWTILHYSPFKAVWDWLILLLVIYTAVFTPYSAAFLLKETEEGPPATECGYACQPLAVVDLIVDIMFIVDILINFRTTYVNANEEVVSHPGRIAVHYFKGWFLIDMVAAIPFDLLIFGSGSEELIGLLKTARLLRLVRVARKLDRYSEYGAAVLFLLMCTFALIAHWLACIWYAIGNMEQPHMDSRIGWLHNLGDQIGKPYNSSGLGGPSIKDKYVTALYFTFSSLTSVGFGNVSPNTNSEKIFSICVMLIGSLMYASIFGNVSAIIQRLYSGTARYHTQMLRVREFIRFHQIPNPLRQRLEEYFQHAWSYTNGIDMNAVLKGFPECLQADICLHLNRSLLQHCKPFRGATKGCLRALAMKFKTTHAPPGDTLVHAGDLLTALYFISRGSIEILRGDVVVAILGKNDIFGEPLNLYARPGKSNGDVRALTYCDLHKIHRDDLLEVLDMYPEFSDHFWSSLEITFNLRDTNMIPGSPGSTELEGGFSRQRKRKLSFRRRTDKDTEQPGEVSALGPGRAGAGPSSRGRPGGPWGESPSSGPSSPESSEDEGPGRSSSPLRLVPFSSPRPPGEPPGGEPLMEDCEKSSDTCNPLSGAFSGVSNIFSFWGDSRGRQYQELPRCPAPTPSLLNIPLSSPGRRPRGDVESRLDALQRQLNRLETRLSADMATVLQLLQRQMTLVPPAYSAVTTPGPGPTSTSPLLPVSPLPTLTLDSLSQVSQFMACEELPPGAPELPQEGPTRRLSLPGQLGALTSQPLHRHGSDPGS

Structure (SMILES)	hERG current change (%, negative = inhibition) at 1uM [%]
O=C(CSc1ncnc2nc[nH]c12)Nc1ccc(Br)cc1Cl	8.12
FC(F)(F)c1cccc(Cc2noc(CN3CCCC3)n2)c1	15.3
C=CCOC(=O)CSCC(NC(=O)OC(C)(C)C)C(=O)OCC (centres unmarked)	12.4
CCOC(=O)C1CCN(C(=O)COC(=O)c2nn(C)c(=O)c3ccccc23)CC1	5.06
C=CCOc1c(Br)cc(/C=N/NC(=O)Cc2ccc(C(F)(F)F)cc2[N+](=O)[O-])cc1OC	15.4
O=c1c2ccccc2oc2ccc(Oc3ccccc3)cc12	11.5
O=C(c1cccc(OCc2ccccc2)c1)N1CCOCC1	3.46
COCCN(CCOC)c1nc(-c2ccc(Cl)cc2)nc2ccccc12	4.14
COC(=O)c1nnn(-c2ccc(Cl)c(Cl)c2)c1C(=O)OC	8.21
O=C1N/C(=N/Nc2ccccc2)S/C1=C\c1ccccc1	9.05
COc1ccc(CCNS(=O)(=O)c2ccc3oc(C(=O)O)c(C)c3c2)cc1OC	7.89
CCCCOCCCNC(=O)c1ccc(OCC)cc1	-2.36
Cn1nnc2cc(C(=O)NC3CCCCC3)ccc21	2.12
NC(=[NH2+])SCC1=CCS(=O)(=O)C1.[Br-]	13.1
O=C1Cc2cc(S(=O)(=O)N3CCN(c4ccccc4)CC3)ccc2N1	13.5
CC(=O)Nc1ccc(S(=O)(=O)NCc2nc(-c3cccc(C)c3)no2)cc1	14.3
COc1ccc(C2CC(c3cccs3)=NN2C(=O)COC(=O)C2CCCCC2)cc1OC (centres unmarked)	-6.12
COc1ccccc1CCNC(=O)c1ccc(NC(=O)CC2SC(N3CCCCC3)=NC2=O)cc1 (centres unmarked)	18.2
Cc1ccc(N(CC(=O)Nc2ccccc2C(=O)N2CCOCC2)S(C)(=O)=O)cc1	10.9

Structure (SMILES)	hERG current change (%, negative = inhibition) at 1uM [%]
CNC(C)C#Cc1ccc2oc3cccc(OC)c3c(=O)c2c1 (centres unmarked)	1.28
CCOC(=O)c1c(NC(=O)CSc2nnnn2C)sc(C(=O)N(C)C)c1C	10.7
Cc1ccccc1C(=O)N1CCN(c2ccc(NC(=O)c3ccc4c(c3)OCCO4)cc2)CC1	10.3
O=C(OCn1ncc(Cl)c(Cl)c1=O)c1cccc(C(F)(F)F)c1	3.1
CCn1cc(/C=C/C(=O)Nc2ccc(C)cc2Br)cn1	-1.03
CCC1Sc2ccc(S(=O)(=O)CCC(=O)Nc3ccccc3Br)cc2NC1=O (centres unmarked)	3.16
CCC(=O)Nc1cccc(C2=NN(c3ccccc3)C(c3ccc(OC)cc3)C2)c1 (centres unmarked)	6.78
CC(C)(C)OC(=O)NCCCC1=CC2=CC(=O)C(C)(O)C(=O)C2=CO1 (centres unmarked)	10.5
CC1(OC(=O)C2CCCC2)C(=O)C=C2C=C(c3ccsc3)N(CCc3c[nH]c4ccccc34)C=C2C1=O (centres unmarked)	3.44
O=C(CCc1ccc(Oc2cc([N+](=O)[O-])cc([N+](=O)[O-])c2)cc1)N1CCCCC1	7.53
S=C1NCCOCCNC(=S)NCCOCCOCCN1	18.9
Br.O=C(Cn1c(NCCO)nc2ccccc21)c1ccc(Cl)cc1	4.49
O=S1(=O)CCOCCCN1Cc1cccc(C(F)(F)F)c1	10.4
CCOC(=O)c1c(C)cccc1OCC(N)=O	12.8
Cc1ccc(C2CC(=O)NC(SCC(=O)OCc3ccccc3)=C2C#N)o1 (centres unmarked)	8.54
Cc1nnc(SCC(=O)N2CCc3ccccc3C2)s1	12.4
COc1ccc(/C=N/NC(=O)c2nonc2C)cc1	1.72
CC1(C(=O)Nc2nc3ccc(S(C)(=O)=O)cc3s2)CC1(Cl)Cl (centres unmarked)	13.2
CCn1c(SCC(=O)N2CCOCC2)nnc1-c1cccs1	6.02

Structure (SMILES)	hERG current change (%, negative = inhibition) at 1uM [%]
CCOc1ccc(Nc2cc(=O)oc3ccccc23)cc1	17.1
O=C(O)CCC(=O)Nc1ccc(C(=O)OCC(=O)c2ccc(Cl)cc2)cc1	13.6
COc1ccccc1-n1cnnc1SCC(=O)NC1CCCCC1	16.7
c1ccc(-n2ncc3c(NCc4cccnc4)ncnc32)cc1	-8.45
CC(C)c1ccc(NC(=O)CSc2nc3ccccc3nc2N2CCCC2)cc1	-0.429
COc1ccc(-c2ccnc3nc(/N=C/N(C)C)nn23)cc1	18.2
Cc1ccc(C)c(N2CCN(C(=O)c3ccc(NC4=NC5CS(=O)(=O)CC5S4)cc3)CC2)c1 (centres unmarked)	3.63
Cc1ccc(N=Nc2c(O)[nH]c3ccc(F)cc23)cc1	13.1
O=c1[nH]nc(Cc2ccc(-c3ccc(Cl)cc3)o2)c2ccccc12	6.24
N#CC(C#N)=C/C=C(\Nc1ccc(Cl)cc1)c1ccc(Cl)cc1	0.712
COC(=O)C1=C(C(=O)OC)[N+]2=C3N(C(=O)NC2(C)C)[C@H](CO)C[C@@]32c3ccccc3N(Cc3ccccc3)[C@@H]12	10.6
CC(C)(C)n1nnnc1C(c1cccnc1)N(Cc1ccccc1)Cc1ccco1 (centres unmarked)	1.71
O=C(Nc1ccc(Cl)cc1)Nc1cc(S(=O)(=O)N2CCOCC2)ccc1N1CCCC1	1.7
NS(=O)(=O)c1ccc(S(=O)(=O)N(Cc2ccccc2F)CC2CCCO2)cc1 (centres unmarked)	9.41
O=C(NCc1ccncc1)C(=O)NCC1OCCCN1S(=O)(=O)c1ccc(F)cc1 (centres unmarked)	13.9
Cc1ccccc1Nc1nnc(SCC(=O)c2ccc(O)cc2O)s1	10.3
CCCN1CCN(CCCNC(=O)CN2C(=O)c3cccnc3Oc3ccc(C)cc32)CC1	8.58
CCC12CN3CC(CC)(CN(C1)C3c1ccccc1Cl)C2O (centres unmarked)	-0.4

From PMC4336329 (PLoS ONE, 2015)
